Laboratory results reported in patent publication EP3498273A1, “PHARMACEUTICAL COMPOSITION FOR MODULATING THE RESPONSE OF A GABA-A RECEPTOR” (Universität Wien, priority 2017, dated 2019).

Assays:
[1] = molecular target: T1, GABAA receptors composed of α1β3γ2S subunits (Homo sapiens, UniProt P14867+P28472); test: cell-based; details: for activation at 100 µM: read-out: IGABA pot, % α1β3γ2s (100µM)
[2] = molecular target: T1, GABAA receptors composed of α1β3γ2S subunits; details: maximal IGABA enhancement, GABA EC3-7

Compound | activation at 100 µM [1] | EC50 [1] | Emax [2]
C/C(=C/C(N)=O)c1ccc(Cl)cc1Cl [Compound Z-11, (2Z)-3-(2,4-dichlorophenyl)-2-butenamide] | 397 ± 10% | – | –
Cc1ccc(OC(C)C#N)c(Cl)c1 (racemic) [Compound 13, 2-(2-chloro-4-methylphenoxy)propanenitrile] | 516 ± 58% | – | –
C/C(=C\C(N)=O)c1ccc(Cl)cc1Cl [Compound E-11, (2E)-3-(2,4-dichlorophenyl)-2-butenamide] | 603 ± 39% | – | –
CC(=Cc1cc(C)cc(C)c1)c1nnn[nH]1 (mixture of isomers) [16 (E/Z mixture), 5-(1-(3,5-dimethylphenyl)prop-1-en-2-yl)-1H tetrazole] | 138 ± 6% | – | –
Cc1ccc(OC(C)C#N)c(C)c1 (racemic) [Compound 14, 2-(2,4-dimethylphenoxy)propanenitrile] | 238 ± 35% | – | –
C/C(=C/C#N)c1ccc(Cl)cc1Cl [Compound Z-2, (2Z)-3-(2,4-dichlorophenyl)but-2-enenitrile] | – | 12.8 ± 1.7 µM | 1896.4 ± 114.3%

Further lines, results first:

activation at 100 µM [1] | EC50 [1] | Emax [2] | Compound
788 ± 67% | – | – | CC(C#N)=Cc1ccc(C)cc1Cl (mixture of isomers) [6 (E/Z mixture), 3-(2-chloro-4-methylphenyl)-2-methylacrylonitrile]
545 ± 57% | – | – | Cc1ccc(C(C)CC#N)c(Cl)c1 (stereo not drawn) [Compound 10, 3-(2-chloro-4-methylphenyl)butanenitrile]
256 ± 45% | – | – | C/C(C#N)=C/c1ccc(C)cc1Cl [Compound Z-6, (2Z)-3-(2-chloro-4-methylphenyl)-2-methylacrylonitrile]
199 ± 92% | – | – | C/C(C#N)=C/c1ccc(Cl)cc1Cl [Compound Z-7, (2Z)-3-(2,4-dichlorophenyl)-2-methylacrylonitrile]
931 ± 54% | – | – | Cc1ccc(CC(C)C#N)c(Cl)c1 (stereo not drawn) [Compound 8, 3-(2-chloro-4-methylphenyl)-2-methylpropanenitrile]
